According to PubChem BioAssay AID488969 (Vanderbilt High Throughput Screening Facility, 2010):
Whole data set: some 110,000 compounds, median “z-score” near -0.1, cut for the highest 2% near 2. The list shows a part of the results. The source made the active and inactive calls.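 Rule for the calls: active = z-score in the third read window above 3 or below -3; inactive = the rest.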

target: Metabotropic glutamate receptor 8 (Rattus norvegicus) (UniProt P70579); experiment: mGluR8 Gi/Go-coupled signaling modulation – cell-based, rat, thallium flux, HTS, primary screen (AID 488969); conditions: HEK293 rat mGluR8, GIRK (G protein-gated inwardly rectifying potassium channel) thallium flux, FluoZin2; at 10 µM; stronger effect = higher value; submaximal glutamate (EC20) added with thallium
Sequence of UniProt P70579 (P70579 whole entry, looked up): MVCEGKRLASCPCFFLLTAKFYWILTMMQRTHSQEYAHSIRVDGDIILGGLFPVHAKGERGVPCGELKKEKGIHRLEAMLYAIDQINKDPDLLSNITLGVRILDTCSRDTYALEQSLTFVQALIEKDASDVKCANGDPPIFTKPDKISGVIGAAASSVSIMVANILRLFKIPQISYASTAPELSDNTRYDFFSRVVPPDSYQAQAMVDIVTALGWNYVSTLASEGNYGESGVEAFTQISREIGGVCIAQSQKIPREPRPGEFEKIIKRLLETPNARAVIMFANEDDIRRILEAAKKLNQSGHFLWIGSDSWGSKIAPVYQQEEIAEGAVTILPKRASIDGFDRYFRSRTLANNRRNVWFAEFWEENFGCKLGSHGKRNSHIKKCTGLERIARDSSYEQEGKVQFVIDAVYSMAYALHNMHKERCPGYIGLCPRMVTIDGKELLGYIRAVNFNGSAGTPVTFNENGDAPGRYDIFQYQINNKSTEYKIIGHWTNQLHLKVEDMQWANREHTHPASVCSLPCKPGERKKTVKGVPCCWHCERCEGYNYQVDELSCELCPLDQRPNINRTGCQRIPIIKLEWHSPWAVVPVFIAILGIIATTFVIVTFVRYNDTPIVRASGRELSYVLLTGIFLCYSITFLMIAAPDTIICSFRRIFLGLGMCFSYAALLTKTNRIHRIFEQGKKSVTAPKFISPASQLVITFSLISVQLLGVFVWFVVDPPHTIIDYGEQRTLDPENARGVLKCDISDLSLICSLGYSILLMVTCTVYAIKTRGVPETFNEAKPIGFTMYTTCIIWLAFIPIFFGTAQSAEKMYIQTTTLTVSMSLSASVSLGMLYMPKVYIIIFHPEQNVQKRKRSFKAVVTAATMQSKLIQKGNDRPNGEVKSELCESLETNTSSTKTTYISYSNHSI

Row | SMILES | z-score
1 | CCOC(=O)c1ccccc1NC(=O)CSc1nnnn1C | 0.00648
2 | O=C(O)c1cc([N+](=O)[O-])ccc1C(=O)Nc1ccccc1 | -0.0661
3 | Nc1ccccc1C#Cc1ccccc1 | -0.191
4 | CCN(CC)c1ccc(/C=N/n2nnnc2N)c(O)c1 | -1.41
5 | CCn1c(SCC(=O)N/N=C/c2c[nH]c3ccccc23)nnc1-c1ccc(C(C)(C)C)cc1 | -2.08
6 | CCn1nnc(-c2ccccc2NC(=O)c2cc(OC)c(OC)c(OC)c2)n1 | -1.03
7 | Cc1ccc(OCC(O)CNC(=O)c2ccccc2C(=O)O)cc1 (centres undefined) | -0.385
8 | COC(=O)c1ccc(-n2c(C)cc(-c3csc(NC(=O)c4ccc(S(=O)(=O)N(C)C)cc4)n3)c2C)cc1 | -0.348
9 | O=C(Cc1cccc2ccccc12)Nc1ccccc1C(=O)O | -0.592
10 | Cn1cc(CN2CCc3ccccc3C2)c2ccccc21 | 0.58
11 | O=C1N(Cc2ccc(F)cc2Cl)c2ccccc2C12OCCCO2 | 0.123
12 | CCCN(CCC)CCCNS(=O)(=O)c1ccc2c(c1)oc(=O)n2C | -0.682
13 | Cc1ccc(-n2nnnc2-c2cnc3ccc(Cl)cc3c2-c2ccccc2)cc1 | -0.158
14 | COc1ccc(-n2cnnc2SCC(=O)Nc2nc(C)c(Cl)cc2Cl)cc1 | -0.259
15 | Cc1c(NC(=O)c2cc3nc(-c4ccc(Cl)cc4)cc(C(F)(F)F)n3n2)c(=O)n(-c2ccccc2)n1C | -0.18
16 | COc1ccccc1NC(=O)C1=C(C)NC(SCC(=O)c2ccc(C)cc2)=C(C#N)C1c1ccco1 (centres undefined) | -0.301
17 | CCN(C(=O)c1cn(CC)c(=O)c2cc(OC)c(OC)cc12)c1ccccc1C | -0.561
18 | CC(=O)CCc1c[nH]c2c(C(=O)O)cccc12 | 0.0101
19 | CC1(C)Cc2c(sc3nc4n(c(=N)c23)CCC4)CO1 | -0.0375
20 | Cc1ccc(CSCC(=O)NCc2cccnc2)cc1 | -0.00593
21 | O=C(NCC(=O)N(Cc1cccs1)C(C(=O)NC1CCCC1)c1ccncc1)c1ccco1 (centres undefined) | 0.432
22 | O=C(Nc1cccnc1)c1noc2c1CCCCC2 | -0.366
23 | O=C(NCc1ccco1)c1ccc(S(=O)(=O)c2cccc(S(=O)(=O)N3CCOCC3)c2)cc1 | 0.0723
24 | Cc1ccc(C(=O)COc2ccccc2-c2ccccc2)cc1C | -0.198
25 | Cc1cc2ccccc2c(=O)n1CC(=O)NCc1ccco1 | -1.13
26 | N#Cc1c2c(c[nH]c1=O)CCN2Cc1ccccc1 | -2.26
27 | O=C1Cc2ccccc2C(=O)N1CCc1ccccc1 | 0.155

Row | SMILES | z-score
28 | CCC(C)(C)n1nnnc1CN1CCN(c2nc3cc(OC)ccc3cc2C#N)CC1 | -1.2
29 | C=C(C)c1cccc(C(C)(C)NC(=O)Nc2ccc(Cl)cn2)c1 | -0.222
30 | COc1ccc(NC(=O)CN2CCC3(O)CCCCC3C2c2ccccc2OC)cc1 (centres undefined) | -0.286
31 | O=C(CCC1CCCC1)NCCCN1CCOCC1 | -0.00267
32 | Cc1cc(NC(=O)CSc2nnc(COc3cccc(C)c3C)n2Cc2ccco2)no1 | -0.155
33 | O=C(N/N=C/c1ccc(Br)o1)/C(=C/c1ccc([N+](=O)[O-])cc1)NC(=O)c1ccccc1 | -0.162
34 | O=c1c(CN2CCN(Cc3ccccc3)CC2)coc2ccc(Cl)cc12 | -0.714
35 | CC1=CC(=O)C=CC1(C)C(Cl)(Cl)Cl (centres undefined) | -0.171
36 | N/C(Cc1ccc(Cl)cc1)=N\OC(=O)c1cccc2ccccc12 | -0.0256
37 | CC(C)N1CCC(=NNC(=O)c2ccc(Br)o2)CC1 | 0.407
38 | COc1ccc(OC)c(NC(=O)c2cc3sccc3n2C)c1 | -0.233
39 | Cn1c(=O)c2c(nc(NCc3ccco3)n2CC(O)COc2ccccc2)n(C)c1=O (centres undefined) | -0.558
40 | CCn1c2ccc(/C(C)=N\O)cc2c2cc(/C(C)=N\O)ccc21 | -0.282
41 | O=C(NCc1ccccc1Cl)c1ccc2c(=O)n(CCCN3CCCC3=O)c(=S)[nH]c2c1 | -0.38
42 | O=C(O)CN1CCN(Cc2ccc(F)cc2Cl)C1=O | 0.135
43 | CCOC(=O)c1sc(SCC(=O)Nc2ccc(N(C)C)cc2)nc1N | -1.68
44 | [N-]=[N+]=CC(=O)C(Cc1ccccc1)N1C(=O)c2ccccc2C1=O (centres undefined) | -0.28
45 | CCc1nc(SCc2ccc(F)cc2)[nH]c(=O)c1C#N | active: -5.68
46 | C=CCn1c(SCc2ccccc2)nc2scc(-c3ccc(C)o3)c2c1=O | -0.00781
47 | CC(=O)N(c1ccc(Br)cc1)C1C=CS(=O)(=O)C1 (centres undefined) | 0.218
48 | Cc1cccc(NC(=O)N(Cc2nc3ccccc3c(=O)[nH]2)C2CCCC2)c1 | 2.35
49 | N#Cc1ccccc1CSc1ccc(-c2nc3ccccc3[nH]2)cn1 | -0.154
50 | O=C(CCN1CCN(c2ccccc2)CC1)Nc1ccc(OCc2ccccc2)cc1 | -0.117
51 | CCOC(=O)C1=NN(c2ccc(F)cc2)C2=NC(C)=C(C(=O)OC)C(c3cccs3)N12 (centres undefined) | -0.0892
52 | Cc1c(N2C(=O)CS/C2=N\N=C\c2ccccc2O)c(=O)n(-c2ccccc2)n1C | active: 3.28
53 | Cc1ccc(NC(=O)COC(=O)c2ccc(OCc3c(C)noc3C)cc2)cc1S(=O)(=O)N1CCOCC1 | -1.34
54 | COc1ccccc1NC(=S)NC(=O)C1CC1 | -0.133
